Drawing on PubChem BioAssay (NCI), this text covers GI50 and TGI for one compound.

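Cells were grown in 96-well plates and exposed to each compound for 48 hours at five concentrations; endpoints were interpolated linearly between bracketing concentrations, or set to the highest concentration if not reached. Abbreviation: GI50, concentration required for 50% inhibition of growth. TGI marks complete inhibition of growth.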

In this assay the test system is NCI-H322M lung. Kind of assay: inhibition of tumour cell growth, NCI panel, 48 h.

Consider `CCN(CC)c1ccc2c(c1)Oc1nc(N)c(C#N)c(N)c1C2Sc1ccc(C)cc1` (configuration not stated), for which the GI50 was 1670 nM and the TGI was 3040 nM.
